# Read counts are not given, so values of variants with three or more changes are uncertain.
# B1: CPEB3 Ribozyme (parent)
# chain: UAACAGGGGGCCACAGCAGAAGCGUUCACGUCGCAGCCCCUGUCAGAUUCUGGUGAAUCUGCGAAUUCUGCUGUAUAUCUC
# Variants of: B1
# Assay: self-cleavage, relative activity (ratio to wild type); higher = more cleavage; in vitro, sequencing
# How it was run: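 Relative activity was defined as the cleaved/total read fraction for a variant divided by the same fraction for the unmutated ribozyme. CPEB3 self-cleaving ribozyme libraries were made by rounds of error-prone PCR, barcoded, and transcribed in vitro with T7 RNA polymerase for 5 hours at 37°C, and cleavage ran through transcription plus a 15 min DNase I step before EDTA. Illumina sequencing of template-switched reverse transcripts gave the reads, and DNA sequencing mapped the barcodes. Averages come from three batches, using variants with at least 5 reads.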
row,Variant,self-cleavage
1,UAACAGGGGGCCACAGCAGAAGCGUUCACGUCGCAGCCCCUGUCAGAUUUUGGUUAAUCUGCGAAUUCUGCUGUAUACCAC [C50U G55U U78C U80A],1.16
2,UAACAGGGGGCCACAGCAGAAGCGUUCACGUCGCAGCCCCUGUCAGAUUUUGGUGAAUCUGCAAUUUCUGCUGUAUAUCUC [C50U G63A A65U],0.47
3,UAACAGGGGGCCACAGCAGAAGCGUUCACGUCGCAGCCCCUGUCAGAUUUAGGUGAAUCUGCGAAUUCUGCCGUAUGUCUC [C50U U51A U72C A77G],1.28
4,UAACAGGGGGCCACAGCAGAAGCGUUCACGUCGCAGCCCCUGUCAGAUUUUGGUGAAACUGCGAAUUCUGAUGUACAUCUC [C50U U58A C71A U76C],0.21
5,UAACAGGGGGCCACAGCAGAAGCGUUCACGUCGCAGCCCCUGUCAGAUUUUGGUGAAUCCGCGAGUUCUGCUGUAUAUCUC [C50U U60C A65G],0.17
6,UAACAGGGGGCCACAGCAGAAGCGUUCACGUCGCAGCCCCUGUCAGAUUCAGGUGGAUCUGCGAAUUCUGCUGUGUAUCUC [U51A A56G A75G],0.32
7,UAACAGGGGGCCACAGCAGAAGCGUUCACGUCGCAGCCCCUGUCAGAUUCAGGUGGAUCUGGGAAUUCUGCUGUAUAUCUC [U51A A56G C62G],0.68
8,UAACAGGGGGCCACAGCAGAAGCGUUCACGUCGCAGCCCCUGUCAGAUUCAGGUGGAUCUGCGAAUUCUGCUGAAUAUCUC [U51A A56G U74A],1.03
9,UAACAGGGGGCCACAGCAGAAGCGUUCACGUCGCAGCCCCUGUCAGAUUCAGGUGGAUCUGCGAAUUCUGCUGUAUACCUC [U51A A56G U78C],0.78
10,UAACAGGGGGCCACAGCAGAAGCGUUCACGUCGCAGCCCCUGUCAGAUUCAGGUGUAUCUGCGAGUUCUGCUGUAUAGCUC [U51A A56U A65G U78G],0.17
11,UAACAGGGGGCCACAGCAGAAGCGUUCACGUCGCAGCCCCUGUCAGAUUCAGGUGAGUCUGCGAAUUCUGCUGUUUAUCUC [U51A A57G A75U],0.69
12,UAACAGGGGGCCACAGCAGAAGCGUUCACGUCGCAGCCCCUGUCAGAUUCAGGUGAGUCUGCGAAUUUUGUUGUAUACCUC [U51A A57G C68U C71U U78C],0.31
13,UAACAGGGGGCCACAGCAGAAGCGUUCACGUCGCAGCCCCUGUCAGAUUCAGGUGAUUCUGCGAAUUCUGCAGUAUAUCUC [U51A A57U U72A],0.51
14,UAACAGGGGGCCACAGCAGAAGCGUUCACGUCGCAGCCCCUGUCAGAUUCAGGUGAAUCUGCGGAUCCUGCGGUAUAUCUC [U51A A64G U67C U72G],0.28
15,UAACAGGGGGCCACAGCAGAAGCGUUCACGUCGCAGCCCCUGUCAGAUUCAGGUGAAUCUGCGGAUUCAGCUGUAUAUCUC [U51A A64G U69A],0.28
16,UAACAGGGGGCCACAGCAGAAGCGUUCACGUCGCAGCCCCUGUCAGAUUCAGGUGAAUCUGCGGAUUCUGCUGUAUACCUC [U51A A64G U78C],0.84
17,UAACAGGGGGCCACAGCAGAAGCGUUCACGUCGCAGCCCCUGUCAGAUUCAGGUGAAUCUGCGUAUCCUGCUGUAUAUCUC [U51A A64U U67C],0.31

row,Variant,self-cleavage
1,UAACAGGGGGCCACAGCAGAAGCGUUCACGUCGCAGCCCCUGUCAGAUUCAGGUGAAUCUGCGUAUUCUGCCGCAUAUCUC [U51A A64U U72C U74C],0.74
2,UAACAGGGGGCCACAGCAGAAGCGUUCACGUCGCAGCCCCUGUCAGAUUCAGGUGAAUCUGCGUAUUCUGCUGUAUAGCUC [U51A A64U U78G],0.29
3,UAACAGGGGGCCACAGCAGAAGCGUUCACGUCGCAGCCCCUGUCAGAUUCAGGUGAAUCUGCGAUUUCAGCUGUAUAUCUC [U51A A65U U69A],0.47
4,UAACAGGGGGCCACAGCAGAAGCGUUCACGUCGCAGCCCCUGUCAGAUUCAGGUGAAUUUGCGAACUCUGCUGCAUAUCUC [U51A C59U U66C U74C],0
5,UAACAGGGGGCCACAGCAGAAGCGUUCACGUCGCAGCCCCUGUCAGAUUCAGGUGAAUUUGCGAAUUCUGCCGUAUACCUC [U51A C59U U72C U78C],1.07
6,UAACAGGGGGCCACAGCAGAAGCGUUCACGUCGCAGCCCCUGUCAGAUUCAGGUGAAUCUGUGAAUCCUGCUGCAUAUCUC [U51A C62U U67C U74C],0.37
7,UAACAGGGGGCCACAGCAGAAGCGUUCACGUCGCAGCCCCUGUCAGAUUCAGGUGAAUCUGUGAAUUCUGCUGUAUACCUC [U51A C62U U78C],0.24
8,UAACAGGGGGCCACAGCAGAAGCGUUCACGUCGCAGCCCCUGUCAGAUUCAGGUGAAUCUGCGAAUUACGCUGUAUAUCUC [U51A C68A U69C],0.34
9,UAACAGGGGGCCACAGCAGAAGCGUUCACGUCGCAGCCCCUGUCAGAUUCAGAUGAAUCUGCGAAUUCAGCAGUAUAUCUC [U51A G53A U69A U72A],0.43
10,UAACAGGGGGCCACAGCAGAAGCGUUCACGUCGCAGCCCCUGUCAGAUUCAGGUAAAUCUGCGUACUCUGCUGUAUAUCUC [U51A G55A A64U U66C],0.51
11,UAACAGGGGGCCACAGCAGAAGCGUUCACGUCGCAGCCCCUGUCAGAUUCAGGUUAACCUGCGGAUUCUGCUGUAUAUCCC [U51A G55U U58C A64G U80C],0.16
12,UAACAGGGGGCCACAGCAGAAGCGUUCACGUCGCAGCCCCUGUCAGAUUCAGGUGAAUCUACGAAUCCUGCAGUAUAUCUC [U51A G61A U67C U72A],0.44
13,UAACAGGGGGCCACAGCAGAAGCGUUCACGUCGCAGCCCCUGUCAGAUUCAGGAGAAUCUGCGAAUUCUGCUGCAUAUCUC [U51A U54A U74C],1.19
14,UAACAGGGGGCCACAGCAGAAGCGUUCACGUCGCAGCCCCUGUCAGAUUCAGGAGAAUCUGCGAAUUCUGCUGUAAAUCUC [U51A U54A U76A],1.09
15,UAACAGGGGGCCACAGCAGAAGCGUUCACGUCGCAGCCCCUGUCAGAUUCAGGCGGAUCUGCGAAUCCUGCUGUAUGUCUC [U51A U54C A56G U67C A77G],0.22
16,UAACAGGGGGCCACAGCAGAAGCGUUCACGUCGCAGCCCCUGUCAGAUUCAGGCGAAUCUGCGAAUUCUGCUGUUUAUCUC [U51A U54C A75U],1.2
17,UAACAGGGGGCCACAGCAGAAGCGUUCACGUCGCAGCCCCUGUCAGAUUCAGGCGAAUCUGCGAAUUCUGCUGUAUGUCUC [U51A U54C A77G],1.09

# Source: the RNAGym collection of RNA variant scans (doi:10.1093/nar/gkz1192)
